# Measurements as given in paper PMC4336329 (PLoS ONE, 2015).
# In all, about 310,000 compounds went through this assay and about 14,000 (4.5%) showed an effect of 50% or more. The effect is printed as a negative number. Some of the results follow.
# Target: human ether-à-go-go-related gene (hERG) potassium channel (human, UniProt Q12809)
# Test: primary screen, population patch clamp on CHO cells stably expressing hERG
# 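Further: peak tail current of the secondary pulse compared with the same well before compound.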
# human ether-à-go-go-related gene (hERG) potassium channel, sequence (Q12809 whole entry, looked up): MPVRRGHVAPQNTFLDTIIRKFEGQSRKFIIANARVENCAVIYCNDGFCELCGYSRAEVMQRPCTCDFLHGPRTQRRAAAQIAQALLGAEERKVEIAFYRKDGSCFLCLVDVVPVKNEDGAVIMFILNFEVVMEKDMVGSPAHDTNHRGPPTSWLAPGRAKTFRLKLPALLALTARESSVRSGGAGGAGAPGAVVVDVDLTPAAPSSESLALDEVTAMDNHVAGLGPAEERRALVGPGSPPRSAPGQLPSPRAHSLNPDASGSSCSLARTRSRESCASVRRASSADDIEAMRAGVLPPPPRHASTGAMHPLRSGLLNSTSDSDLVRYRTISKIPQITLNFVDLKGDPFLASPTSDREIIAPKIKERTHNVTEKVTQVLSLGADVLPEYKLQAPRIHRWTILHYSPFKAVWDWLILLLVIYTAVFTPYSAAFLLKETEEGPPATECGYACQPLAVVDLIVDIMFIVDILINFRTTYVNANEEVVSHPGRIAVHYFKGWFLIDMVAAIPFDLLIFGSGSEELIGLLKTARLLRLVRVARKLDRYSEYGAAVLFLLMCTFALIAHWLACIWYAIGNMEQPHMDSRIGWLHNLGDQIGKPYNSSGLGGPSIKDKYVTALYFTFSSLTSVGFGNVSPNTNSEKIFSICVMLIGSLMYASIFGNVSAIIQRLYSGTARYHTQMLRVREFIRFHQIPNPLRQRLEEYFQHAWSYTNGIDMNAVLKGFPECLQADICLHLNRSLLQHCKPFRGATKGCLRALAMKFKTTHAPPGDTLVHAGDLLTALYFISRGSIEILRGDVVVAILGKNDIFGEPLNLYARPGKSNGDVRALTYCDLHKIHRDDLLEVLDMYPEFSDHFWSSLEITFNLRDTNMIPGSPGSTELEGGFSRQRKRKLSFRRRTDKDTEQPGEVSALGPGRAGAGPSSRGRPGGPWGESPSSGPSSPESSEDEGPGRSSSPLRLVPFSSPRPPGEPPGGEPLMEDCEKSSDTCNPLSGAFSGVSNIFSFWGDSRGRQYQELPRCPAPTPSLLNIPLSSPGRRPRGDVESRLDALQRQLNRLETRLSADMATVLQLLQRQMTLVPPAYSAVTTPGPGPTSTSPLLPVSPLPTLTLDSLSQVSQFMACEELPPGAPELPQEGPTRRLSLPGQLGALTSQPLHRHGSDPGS
row,SMILES,"hERG current change (%, negative = inhibition) at 10uM [%]"
1,Fc1ccccc1NC(=S)NCCc1ccccc1,7.89
2,COC(=O)CCC(=O)Nc1ccc(Br)cc1,-8.82
3,COc1cc(NC(=O)c2cc(CC(C)C)on2)c(OC)cc1Cl,-7.3
4,OC1(c2ccccc2)CN(c2ccccc2)C2=[N+]1CCS2.[Br-] (stereo not shown),-28.1
5,COc1ccc(Cc2nc3ccc(S(N)(=O)=O)cc3[nH]2)cc1OC,2.52
6,Cc1ccc(C2(C)NC(=O)N(CC(=O)Nc3ccc(Cl)c(S(=O)(=O)N4CCCCC4)c3)C2=O)cc1 (stereo not shown),-8.83
7,CCC(C)NC(=O)CC1Oc2ccc(C)cc2NC1=O (stereo not shown),5.92
8,NC(=O)c1sc2nc3c(cc2c1N)CCC3,8.92
9,Cc1cc(C)n2nc(SCC(=O)N(C)C)nc2n1,9.06
10,Nc1ccc(C23CC4CC(CC(C4)C2)C3)cc1,11.1
11,O=C(CCn1ccc2cc(S(=O)(=O)N3CCCC3)ccc21)NCc1cccc(F)c1,6.86
12,CCOC(=O)c1sc(NC(=O)C2CSC3(C)CCC(=O)N23)nc1C (stereo not shown),-42.8
13,CC1CC(C)CN(C(=O)CSc2nc(Cc3cccs3)nc3ccccc23)C1 (stereo not shown),-13
14,CCCCCCCNC(=O)C1(CC2CC(c3ccccc3)=NO2)CCN(C(=O)c2ccccc2)CC1 (stereo not shown),-70.9
15,CC(=O)Nc1ccc(-c2csc(Nc3ccc(S(N)(=O)=O)cc3)n2)cc1,-1.99
16,COc1ccc(NC(=O)CCCC2=NS(=O)(=O)c3ccccc3N2)cc1,17
17,COc1ccc(Cc2c(Cl)ncnc2Cl)cc1,1.27
18,CCOc1ccc(S(=O)(=O)N2CCOCC2)cc1NC(=O)c1ccccc1F,25.6
19,Cc1ccc(S(=O)(=O)N2CCCCC2)cc1NC(=O)c1cccs1,-28.8
20,COC(=O)C1=C(c2ccccc2)C[C@@H]2CC[C@H]1N2C(=O)N1CCCCC1,-4.4
21,O=C(Nc1cccnc1)c1cc2c(s1)-c1ccccc1OC2,-2.06
22,COC(=O)CN(c1ccc2c(c1)OCO2)S(C)(=O)=O,3.07

row,SMILES,"hERG current change (%, negative = inhibition) at 10uM [%]"
1,OC(CCNCCc1c[nH]c2ccccc12)C(F)(F)F (stereo not shown),2.34
2,CC(C)C(NC(=O)c1ccc(C(C)(C)C)cc1)C(=O)N1CCCC1 (stereo not shown),-0.279
3,CCOC(=O)c1[nH]c2c(c1-c1ccccc1)C(=O)CC(c1ccc(OCC)cc1)C2 (stereo not shown),4.63
4,CCC(C)(C)n1nnnc1C(c1ccc(O)cc1)N1CCc2ccccc2C1.Cl (stereo not shown),-33.3
5,COc1ccccc1C(=O)NCCC(=O)NCC(c1ccccc1OC)N1CCCC1 (stereo not shown),29.8
6,COc1cccc(CN2CC(C(=O)N3CCN(c4ccc(Cl)cc4)CC3)CCC2=O)c1 (stereo not shown),-70.9
7,CC(C)c1nc(=S)n(-c2ccccc2)[nH]1,17.5
8,COC(=O)CSc1nnc(NC(=O)/C=C\c2ccc3c(c2)OCO3)s1,20.3
9,CN(C)C(=O)c1ccc(NC(=O)COc2cccc(Oc3ccccc3)c2)cc1,-20.4
10,O=C(N/N=C/c1ccco1)c1ccn[nH]1,22.5
11,Cc1cc(NC(=O)c2ccccc2)no1,5.42
12,COC(=O)c1cc(NC(=O)CN(c2cccc(OC)c2)S(=O)(=O)c2ccccc2)ccc1Cl,-14.2
13,O=C(NCCN1CCOCC1)c1ccc2c(c1)N(Cc1ccccc1)C(=O)c1ccccc1S2,-1.92
14,Cc1cccc(-c2noc(CCc3ccccc3)n2)c1,-1.82
15,O=C(c1ccco1)N1CCN(C(=O)c2ccc(-c3ccccc3Cl)o2)CC1,-67.6
16,CCOC(=O)c1cccc(C(=O)OCC)n1,13.3
17,CC(CCc1ccccc1)NC(=O)COC(=O)c1cccs1 (stereo not shown),-3.94
18,Cc1c(NP(=O)(c2ccc(Br)cc2)c2ccc(Br)cc2)c(=O)n(-c2ccccc2)n1C,-65.7
19,Cc1ccc(S(=O)(=O)c2c(C)nn(-c3ccccc3)c2OC(=O)c2ccc(Br)o2)cc1,20
20,CCOc1cccc(CN2CCC(Oc3ccc(C(=O)NCc4ccccn4)cc3)CC2)c1,-13.8
21,COc1ccc(NC(=O)c2cccnc2N2CCCCC2)cc1,-14.1
22,CCCNCc1cc(OC)c(OCC(=O)NCCc2ccccc2)cc1Br,-38.1

row,SMILES,"hERG current change (%, negative = inhibition) at 10uM [%]"
1,Cc1cccc(NC(=O)CN2C(=O)S/C(=C\c3ccc(-c4cccc(C(=O)O)c4C)o3)C2=O)c1,5.27
2,Cc1cc(=O)oc(C)c1C(=O)NCCCN1CCN(c2ccccc2F)CC1,-40.4
3,COc1ccc(NC(=O)c2cc(=O)[nH]c3ccccc23)cc1,16.1
4,CCC(=O)N/N=C(\C)CC(=O)Nc1ccc2c(c1)OCCO2,27.5
5,O=S(=O)(c1ccc(Cl)cc1)c1nc(-c2ccco2)oc1N1CCCCC1,-7.91
6,O=[N+]([O-])c1cccc(-c2nnnn2-c2cccc(F)c2)c1,5.66
7,O=C(Nc1ccccc1Cl)c1ccccc1S(=O)(=O)c1ccccc1[N+](=O)[O-],7.38
8,CC(C)=NNc1nc(-c2ccc([N+](=O)[O-])cc2)cs1,-13.2
9,CC1(C)Cc2c(sc(NC(=O)COc3cccc4ccccc34)c2C#N)C(C)(C)N1,11.6
10,CC(=O)c1ccc(S(=O)(=O)NC2CC2)cc1,15.8
11,COc1ccc(-n2nc(C(=O)NCC(=O)N3CCN(C)CC3)c3ccccc3c2=O)cc1,15.5
12,Cc1ccc(OC(=O)c2ccc3nc(C)sc3c2)cc1,17.1
13,Cc1ccc(C(=O)CCNc2cccc(Br)c2)o1,4.71
14,Cc1ccc(N2CC(C(=O)Nc3nnc(SCc4cccnc4)s3)CC2=O)cc1 (stereo not shown),-3.64
15,COc1ccc(OC)c(NC(=O)Cn2c(-c3ccc(Cl)cc3)noc2=O)c1,-15.6
16,CN(C1CCCCC1)S(=O)(=O)c1ccc(NC(=O)C2CCCCC2)cc1,-9.97
17,CCOC(=O)c1cnc2c(C(F)(F)F)cccc2c1N1CCN(C)CC1.Cl,-33.7
18,O=C(N/N=C/c1nn(-c2ccccc2)cc1-c1ccccc1)c1ccncc1,-8.55
19,CCCCOc1ccc(C(O)(CCN2CCOCC2)c2ccccc2)cc1.Cl (stereo not shown),-21.7
20,Cl.O=C(/C=C/c1cn(-c2ccccc2)nc1-c1cccs1)NCCN1CCOCC1,-39
21,CN(C)S(=O)(=O)c1cccc(NC(=O)CN2C(=O)NC3(CCc4ccccc4C3)C2=O)c1 (stereo not shown),13.9
22,COc1cc(OC)cc(C(=O)N=c2sc3ccccc3n2C)c1,25.3

row,SMILES,"hERG current change (%, negative = inhibition) at 10uM [%]"
1,COCCn1c(C)cc(C(=O)CSc2nnnn2C2CCCC2)c1C,-69
2,Cc1cccc(C)c1NS(=O)(=O)c1ccc(NC(=O)c2ccc(Cl)c([N+](=O)[O-])c2)cc1,13.9
3,Cc1ccc(NC(=O)c2ccc(F)cc2F)cc1NS(C)(=O)=O,6.69
4,O=S(=O)(NC1CCCC1)c1cccc(S(=O)(=O)N2CCC(n3nnc4ccccc43)CC2)c1,-26
5,CC(/C=N/NC(=O)c1ccccc1F)=C\c1ccccc1,12.7
6,CC1=NN(C(=O)Cn2ccc([N+](=O)[O-])n2)C(O)(C(F)(F)F)C1 (stereo not shown),11.3
7,O=C(COC(=O)c1cc([N+](=O)[O-])ccc1N1CCOCC1)Nc1cccc(F)c1,-28.5
8,Cc1cc(-c2ccc(C)c(S(=O)(=O)NC(C)Cc3ccco3)c2)on1 (stereo not shown),-39.4
9,COc1ccc(C(=O)C2CCCN(Cc3cccn3-c3ccc(Cl)cn3)C2)c(OC)c1 (stereo not shown),-76
10,Cc1ccccc1NC(=S)Nc1cccc([N+](=O)[O-])c1,12.6
11,COc1ccccc1C(=O)OCC(=O)c1cccc([N+](=O)[O-])c1,10.3
12,CCOC(=O)C1(C)/C(=N/Nc2ccc(S(N)(=O)=O)cc2)C(=O)C(=O)N1c1ccccc1 (stereo not shown),9.65
13,O=C1Nc2ccc(Cl)cc2C12OCCCO2,14.5
14,Cc1ccc(C(C(=O)NCC2CCCO2)N(C(=O)c2snc(C(N)=O)c2N)c2ccccc2)o1 (stereo not shown),15.6
15,CCCCOC(=O)/C=C/c1c(C)[nH]c(=O)[nH]c1=O,-5.32
16,COc1ccccc1NC(=O)CSc1ccc2nnc(-c3ccncc3)n2n1,-31.3
17,COc1cccc(OCCN2CCN(c3ncnc4c3cnn4-c3ccccc3)CC2)c1,-2.07
18,O=C1NCC(=O)N2CCC[C@@H]12,-7.68
19,CC(Sc1ccccn1)C(=O)Nc1ccc(S(N)(=O)=O)cc1 (stereo not shown),19.5
20,Cc1ccc(Sc2ncccc2C(=O)O)c(C)c1,7.39
21,O=C(NCCN1CCCC1)C1(S(=O)(=O)c2ccc(Cl)cc2)CC1,11.7
22,CC(=O)c1ccc(Nc2nc(-c3cccnc3)cs2)cc1,6.18
